From the supplement of paper PMC11417369
The other results are listed elsewhere or left out.

These sequences were tested on PF3D7_0420300 AP2 domain 1 (GST-tagged) (assay: gcPBM binding intensity (ln(normalized median fluorescence intensity)); higher = stronger DNA binding).
Outline: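 Plasmodium falciparum DNA-binding domains carrying a GST tag were expressed in E. coli and applied for 1 h, at about 25 μg on average, to an Agilent 4 × 180k array. The array held primer-extended double-stranded 36-bp intergenic genomic probes together with negative controls, and binding took place in 1× PBS with 1% milk, 0.2 mg/ml BSA, 0.5% salmon testes DNA and 0.03% Triton X-100. An Alexa488 anti-GST antibody detected bound protein, and the array was scanned at 488 nm. Binding intensity is taken as the highest Masliner-normalised natural-log median intensity across replicate spots of either probe orientation.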

Sequence	gcPBM binding intensity (ln)
TTAATGTTATATGTGTGTACATATAAGTTTAGTAAA [XGTACX_site4651]	9.37
TTATATCTTATAAAATGTACATAAAATATATAATAT [XGTACX_site7647]	9.16
ATTAATTATATAATATGTACATATTACAAATATATA [XGTACX_site1478]	9.04
ATATTTTTCTTAAGTACACACTAAATAGAAACTAAA [CACACA_site4191]	9.2
AATAATATAACAGAACAAAACTAAATATACACATAT [TGCATGCA_negctrl_site31]	9.78
TATTTCATAATAAATTGTACGCGTAGAAAACCATGA [XGTACX_site7506]	9.55
ATATTAAAATTAAACGCATGCATATATTATAAAAGA [TGCATGCA_site231]	9.11
CTAATTAATGGGTACATACACACATATATACATACA [CACACA_site743]	9.62
TTTTTATCAAATAAATGTACACATATTAAATGAAAT [XGTACX_site555]	9.08
TTCTGTATAACACAAATTTTTTTTTATTCACTCTGT [TGCATGCA_negctrl_site410]	9.19
AACACTTCATACACGTGTACAAATATAATATAGACA [XGTACX_site5671]	9.48
AAAATATTCACGTGTACATATATATATATATATTAT [TGCATGCA_negctrl_site192]	9.39
GGAAATAATATTATTACACACCAAAATGTATAAAAA [CACACA_site4036]	9.39
ATTTTCTATATCTTTCAACACACAAATTTTTTTTTC [CACACA_site7918]	9.36
TACATCAAACAAGTATGTACATATATATATATATAT [XGTACX_site7415]	9.1
TATGTAATAATAAACGGTACACTATATTGTATGAAA [XGTACX_site4648]	9.52
AATAAATAGTAGTAGGTGCTACTATATTATATATAT [GTGCAC_site9452]	9.2
GCATATGATGAGCATATAATCATAAGAAAAAAAAAA [CACACA_negctrl_site701]	8.98
TATATATATATAGATGCATGCAATTACATATAACAA [TGCATGCA_site118]	9.41
TTGTGTACATATTAAGTGCATATATATATATATATA	9.64
ATATATATATCAAAATGTACAAAAATAGAATTTAAA [XGTACX_site8292]	9.26
CAGTAGTTTTTATGGGTGCAAAACATATATATAACA	9.29
AAACGGCTATTAAAATGTACATGTAAATATATTAAA [XGTACX_site918]	9.24
AATACATATGGGTGTACACATTATATATATATATAT [CACACA_site4601]	9.41
ATCTTTTTACTTAATACACACACACCCAAAAAAAAA [CACACA_site8221]	9.88
